Laboratory results taken from US20230287084A1 (35PHARMA, published 2023).

T1: BMP-9 (UniProt Q9UK05 320-429)
T1 sequence (looked up): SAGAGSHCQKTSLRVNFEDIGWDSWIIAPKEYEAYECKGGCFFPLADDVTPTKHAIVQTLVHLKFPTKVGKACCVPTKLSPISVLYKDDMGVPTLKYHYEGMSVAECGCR

T2: BMP-10 (UniProt O95393 317-424)
T2 sequence (looked up): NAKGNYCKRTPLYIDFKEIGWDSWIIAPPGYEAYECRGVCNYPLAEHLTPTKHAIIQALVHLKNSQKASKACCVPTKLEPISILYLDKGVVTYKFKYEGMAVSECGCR

T3: activin A (UniProt P08476 311-426)
T3 sequence (looked up): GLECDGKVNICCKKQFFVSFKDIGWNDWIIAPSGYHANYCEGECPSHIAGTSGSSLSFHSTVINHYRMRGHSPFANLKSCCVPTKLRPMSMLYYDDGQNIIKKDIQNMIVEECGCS

T4: GDF-11 (UniProt O95390 299-407)
T4 sequence (looked up): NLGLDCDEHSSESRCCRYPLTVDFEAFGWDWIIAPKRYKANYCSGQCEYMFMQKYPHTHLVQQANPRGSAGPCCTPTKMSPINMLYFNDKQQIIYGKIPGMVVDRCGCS

T5: activin B (UniProt P09529 293-407)
T5 sequence (looked up): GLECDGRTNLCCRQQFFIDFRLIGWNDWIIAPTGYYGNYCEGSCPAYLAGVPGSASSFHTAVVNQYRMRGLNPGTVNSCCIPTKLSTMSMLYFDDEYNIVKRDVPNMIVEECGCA

T6: GDF-8 (UniProt O14793 267-375)
T6 sequence (looked up): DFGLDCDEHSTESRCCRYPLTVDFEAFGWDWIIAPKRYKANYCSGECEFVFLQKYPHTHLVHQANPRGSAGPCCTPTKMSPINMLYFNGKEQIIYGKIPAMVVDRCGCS

B1: P622 (hActRIIB - F58E, 14aa linker, IgG1 FcDL) (Fc fusion)
chain: ETRECIYYNANWELERTNQSGLERCEGEQDKRLHCYASWRNSSGTIELVKKGCWLDDENCYDRQECVATEENPQVYFCCCEGNFCNERFTHLPEAGGPEVTYEPPPTGGGGSGGGGSGG[omitted - human IgG1 Fc and a few adjoining residues]
B2: P624 (hActRIIB - F58E, 3aa linker, IgG1 FcDL) (Fc fusion)
chain: ETRECIYYNANWELERTNQSGLERCEGEQDKRLHCYASWRNSSGTIELVKKGCWLDDENCYDRQECVATEENPQVYFCCCEGNFCNERFTHLPEAGGPEVTYEPPPTG[omitted - human IgG1 Fc and a few adjoining residues]
B3: P666 (hActRIIB - F58E, 19aa linker, IgG1 FcDL) (Fc fusion)
chain: ETRECIYYNANWELERTNQSGLERCEGEQDKRLHCYASWRNSSGTIELVKKGCWLDDENCYDRQECVATEENPQVYFCCCEGNFCNERFTHLPEAGGPEVTYEPPPTGGGGSGGGGSGGGGSGG[omitted - human IgG1 Fc and a few adjoining residues]
B4: P667 (hActRIIB - F58E, 39aa linker, IgG1 FcDL) (Fc fusion)
chain: ETRECIYYNANWELERTNQSGLERCEGEQDKRLHCYASWRNSSGTIELVKKGCWLDDENCYDRQECVATEENPQVYFCCCEGNFCNERFTHLPEAGGPEVTYEPPPTGGGGSGGGGSGGGGSGGGGSGGGGSGGGGSGGGGSGG[omitted - human IgG1 Fc and a few adjoining residues]
B5: P687 (hActRIIB - F58D, 14aa linker, IgG1 FcDL) (Fc fusion)
chain: ETRECIYYNANWELERTNQSGLERCEGEQDKRLHCYASWRNSSGTIELVKKGCWLDDDNCYDRQECVATEENPQVYFCCCEGNFCNERFTHLPEAGGPEVTYEPPPTGGGGSGGGGSGG[omitted - human IgG1 Fc and a few adjoining residues]
B6: P441 (hActRIIB - G27D + F58E, 3aa linker, IgG1 FcEM) (Fc fusion)
chain: ETRECIYYNANWELERTNQSGLERCEDEQDKRLHCYASWRNSSGTIELVKKGCWLDDENCYDRQECVATEENPQVYFCCCEGNFCNERFTHLPEAGGPEVTYEPPPTG[omitted - human IgG1 Fc and a few adjoining residues]

Assays:
Assay in all cases: cell-based or functional assay
BMP-9 = molecular target: T1, BMP-9
BMP-10 = molecular target: T2, BMP-10
activin A = molecular target: T3, activin A
GDF-11 = molecular target: T4, GDF-11
activin B = molecular target: T5, activin B
GDF-8 = molecular target: T6, GDF-8

Binder	% increase of potency relative to P624 (BMP-9) [%]	Average IC50, BMP-9 neutralization (HepG2 BMP-reporter) (BMP-9) [nM]	% increase of potency relative to P624 (BMP-10) [%]	Average IC50, BMP-10 neutralization (HepG2 BMP-reporter) (BMP-10) [nM]	% increase of potency relative to P624 (activin A) [%]	Avg IC50, activin A neutralization (HEK293 TGFβ-reporter) (activin A) [nM]	Avg IC50, GDF-11 neutralization (HEK293 TGFβ-reporter) (GDF-11) [nM]	% increase of potency relative to P624 (activin B) [%]	Avg IC50, activin B neutralization (HEK293 TGFβ-reporter) (activin B) [nM]	Avg IC50, GDF-8 neutralization (HEK293 TGFβ-reporter) (GDF-8) [nM]
B1	153	373	77	0.98	295	0.43	0.31	129	1.2	0.29
B2	–	951	–	1.7	–	1.7	0.3	–	2.7	0.32
B3	–	144	–	0.88	–	0.33	0.21	–	1.1	0.25
B4	–	498	–	1.4	–	0.48	0.38	–	1.7	0.47
B5	–	36	–	2.4	–	2	0.85	–	8.8	1.4
B6	–	362	–	1	–	0.67	0.73	–	28	0.6
